Data reported in publication PMC7819943, “Rice protein-binding microarrays: a tool to detect cis-acting elements near promoter regions in rice”.
Some of the results follow.

Target: T1, OsWOX13 (Oryza sativa, UniProt Q5QMM3 1-267)
T1 sequence: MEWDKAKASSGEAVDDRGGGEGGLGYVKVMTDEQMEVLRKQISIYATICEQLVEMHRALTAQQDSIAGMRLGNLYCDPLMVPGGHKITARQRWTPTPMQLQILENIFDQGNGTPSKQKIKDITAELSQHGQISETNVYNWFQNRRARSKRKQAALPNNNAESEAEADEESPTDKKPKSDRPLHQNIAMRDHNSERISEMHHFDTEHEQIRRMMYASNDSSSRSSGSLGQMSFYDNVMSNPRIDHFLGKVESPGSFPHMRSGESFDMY
Assay: protein-binding microarray (RPBM); PBS, 2% BSA, 51.3 ng/ul salmon testes DNA, 50 uM zinc acetate, 200 nM TF, 25 C, 1 h; high values mean tight binding
Details: protein: recombinant; tags: N-terminal polyhistidine and DsRed monomer fusion (pET32a); label: CyDye5-dUTP incorporated in the synthesized complementary strand; 3' TTTTT single-stranded linker to array surface; dsDNA, one strand shown
Procedure, shortened: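 Binding signal is defined as the fluorescence intensity of each feature in arbitrary units, read on an Axon 4000B scanner. Transcription factors with N-terminal polyhistidine and DsRed fusions came from E. coli BL21-CodonPlus and were purified on Ni–NTA. They were incubated at 200 nM for 1 h at 25 °C on a custom Agilent array that had been made double-stranded with Cy5-dUTP, with 50 µM zinc acetate present, and the array was washed.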

| Sequence | binding signal |
| --- | --- |
| GTATATTTAATAATAAATCAACTCGCAATGAGACAAAATGCGGAGTCACCTAGTGCAG | 4570 fluorescence intensity (a.u.) |
| ACTAACATGGTAGATTGCGCATTTATTTGTACTGTATTATCGGAGTCACCTAGTGCAG | 8090 fluorescence intensity (a.u.) |
| GGTGTAATAGATGAAGTTGGCATATGGATATTTGGAGGTACGGAGTCACCTAGTGCAG | 4840 fluorescence intensity (a.u.) |
| TGAATTGATCAAGTGCTAATAGAGTAGCAGGTCAATGCAACGGAGTCACCTAGTGCAG | 5250 fluorescence intensity (a.u.) |
| TGTTGATTGAATTGCATCCCTCAACCATAATAGCAGAGAACGGAGTCACCTAGTGCAG | 36300 fluorescence intensity (a.u.) |
| TAGATCATTACGTAGATTGCATTAAGGGAAATTTCACTAACGGAGTCACCTAGTGCAG | 3630 fluorescence intensity (a.u.) |
| CCATAACAAATTTAATAATCAGTTAAGTTAAGCTCACCTTCGGAGTCACCTAGTGCAG | 15100 fluorescence intensity (a.u.) |
| TTAAACTTCTAATTTTAACGTGGAACTAAATACAGCCTAACGGAGTCACCTAGTGCAG | 5360 fluorescence intensity (a.u.) |
| GCCAAATATTGACTGCTGGTTTTGTTTACCCTCCGCAGTGCGGAGTCACCTAGTGCAG | 5140 fluorescence intensity (a.u.) |
| TGGATGATTGGTGAGATAGGTGTTCCTTATAATTATAGGGCGGAGTCACCTAGTGCAG | 54800 fluorescence intensity (a.u.) |
| TCCGACGAAAATTAAGATTATATTATGATTTTGTTAGAGACGGAGTCACCTAGTGCAG | 4610 fluorescence intensity (a.u.) |
| AGGTACCGGCTTGATTGGCAGGTGTTGAGGCGATTCTTCTCGGAGTCACCTAGTGCAG | 18300 fluorescence intensity (a.u.) |
| TTGGAACTGATTTGCAATAGAAGGCTATGACTAAATTGATCGGAGTCACCTAGTGCAG | 21000 fluorescence intensity (a.u.) |
| CGGTAGACATATTTGATGACATAATCCAAAGTAACTATATCGGAGTCACCTAGTGCAG | 4020 fluorescence intensity (a.u.) |
| GTGACTGATGAACATGATGTTGGATGTATGGGATGGCACGCGGAGTCACCTAGTGCAG | 14700 fluorescence intensity (a.u.) |
| TAGTAATTACTACTAATCTGGTTGCCTGCATACTTAGTGTCGGAGTCACCTAGTGCAG | 30500 fluorescence intensity (a.u.) |
| CAACTATAAAATAATTGACTCGGTTATCTAAAGATGAATTCGGAGTCACCTAGTGCAG | 11000 fluorescence intensity (a.u.) |
| ATATAATGCTAACAAGAAATCACAGTATAATTTGGGGACGCGGAGTCACCTAGTGCAG | 4220 fluorescence intensity (a.u.) |
| AAAGAGAACACATAATTGATTTGGAGCACCCAAATAATTTCGGAGTCACCTAGTGCAG | 15200 fluorescence intensity (a.u.) |
| GTGCTAGTTGATTAATTAGGTCAAGCGTAGTTTATTTCATCGGAGTCACCTAGTGCAG | 16300 fluorescence intensity (a.u.) |
| TTATATTGATGTTAATGAAACATATATATATCTATATAGACGGAGTCACCTAGTGCAG | 7980 fluorescence intensity (a.u.) |

| Sequence | binding signal |
| --- | --- |
| CTAATATGTTGATCGGTTCTTAGATTGAAAAGGTGGTTCGCGGAGTCACCTAGTGCAG | 8580 fluorescence intensity (a.u.) |
| CCTCTCATTTACGAATAGAATGATTATTGTGCCCTTCTGCCGGAGTCACCTAGTGCAG | 4190 fluorescence intensity (a.u.) |
| AGTAGAATTACAATTTATAAATGAAAGAAATATCACAATACGGAGTCACCTAGTGCAG | 3370 fluorescence intensity (a.u.) |
| ATATTTAAATTATTACTAGATAGCTATGAATGAAAGATTACGGAGTCACCTAGTGCAG | 7030 fluorescence intensity (a.u.) |
| TGAATTAGCTATTAGATTAGATATAGATGAATTGTTGATACGGAGTCACCTAGTGCAG | 4360 fluorescence intensity (a.u.) |
| GAGGGAGTAATTGCTAGTGGATGATGATGTGACATGCTTGCGGAGTCACCTAGTGCAG | 8640 fluorescence intensity (a.u.) |
| GTCGTCTAAGTCAAATAATTGATGCCATAAAGCGGATGTTCGGAGTCACCTAGTGCAG | 6170 fluorescence intensity (a.u.) |
| TATATATATATATATATATTCACAAAATGTATCGTTTAACCGGAGTCACCTAGTGCAG | 6980 fluorescence intensity (a.u.) |
| TTGTGAGTAATTGCTCTTGTGCTAAGAGAATAGACTTTATCGGAGTCACCTAGTGCAG | 3850 fluorescence intensity (a.u.) |
| AATTTTAATTTGGAGTGATAATAAGGTAAAGTTTAACGGGCGGAGTCACCTAGTGCAG | 15000 fluorescence intensity (a.u.) |
| TTTGGTGTGATTAGATAATAATAATAATAATAATAATAGACGGAGTCACCTAGTGCAG | 12700 fluorescence intensity (a.u.) |
| TCGGTATCATGTCACAATAATTAGCAACTAGAGAAAGAACCGGAGTCACCTAGTGCAG | 4080 fluorescence intensity (a.u.) |
| ACATCCAATCAAGCAAAGCAGATGTGCAAAGCATCCGTGTCGGAGTCACCTAGTGCAG | 24600 fluorescence intensity (a.u.) |
| AAAAGATTGAAACCACATACAAATAAATGGTTGTGTGAAACGGAGTCACCTAGTGCAG | 13800 fluorescence intensity (a.u.) |
| GGGCTATTTAATTACGATCCATCTGAAACAAACATGTGTACGGAGTCACCTAGTGCAG | 11600 fluorescence intensity (a.u.) |
| ATCTCTTAACTGCAACAACGGATTTGCAGGCGCGCATTGACGGAGTCACCTAGTGCAG | 3580 fluorescence intensity (a.u.) |
| AAACGTGTTGCATTTGTGATTGGAGAGAGTACTGAATCACCGGAGTCACCTAGTGCAG | 10200 fluorescence intensity (a.u.) |
| TGTGTTAACTATGTTAATATTAAAATATAATGGTCTAGTCCGGAGTCACCTAGTGCAG | 3530 fluorescence intensity (a.u.) |
| TATCCAATTAGAGTTCACCAAGGAATGAGACAGAGAGATCCGGAGTCACCTAGTGCAG | 3330 fluorescence intensity (a.u.) |
| CTCTTTCAAATTGACTGAATTTAAGTGAAATCACAATAATCGGAGTCACCTAGTGCAG | 17400 fluorescence intensity (a.u.) |
| ATATATGATTTTGTTTGGGTGCTAGCCGCGCAATTGCACGCGGAGTCACCTAGTGCAG | 3810 fluorescence intensity (a.u.) |
